# Experimental data reported in PMC6212790.
# The list shows a part of the results. At the low end of the ranking, values are background and their order means little.
# Molecular target: T1, GST-Rok-C97-191 (UniProt O34857)
# T1 sequence: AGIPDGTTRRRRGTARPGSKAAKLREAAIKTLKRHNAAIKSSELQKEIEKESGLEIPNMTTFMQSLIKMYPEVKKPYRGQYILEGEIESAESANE
# Test: protein binding microarray;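 further: rank score from −0.5 (least bound) to 0.5 (best bound)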
# Details: Rok is a gene silencer of Bacillus subtilis; high values mean tight binding; most listed sequences are background and not binding sites; double strand, one strand shown
row,Sequence,binding signal
1,ATCCCCCG,-0.0706 E-score
2,GCCGAACC,-0.0657 E-score
3,CAAAATTG,0.185 E-score
4,CGACCAAG,0.0163 E-score
5,AAATCCGA,-0.0171 E-score
6,GCTGCAAC,-0.13 E-score
7,ATCACGGA,-0.157 E-score
8,ACCGGGGC,-0.341 E-score
9,ATGCCAGG,-0.0548 E-score
10,ACCTCCAG,-0.197 E-score
11,ATTGTCCA,-0.0322 E-score
12,GTTTAAGA,0.0894 E-score
13,GCTCTCCA,-0.345 E-score
14,CTTCGGTA,0.0404 E-score
15,ATTCAATG,-0.0215 E-score
16,ATGCAATA,-0.0814 E-score
17,GTAGCAAA,0.203 E-score
18,AGTGCCTA,-0.0378 E-score
19,AGTCAATC,0.0132 E-score
20,AGATAACT,0.203 E-score
21,ATCACATC,0.00892 E-score
22,TCTTAACA,0.114 E-score
23,CAAAGGGG,-0.16 E-score
24,TAAAAGTA,0.273 E-score
25,AACAGGTT,-0.172 E-score

row,Sequence,binding signal
1,AAGAGGCT,-0.168 E-score
2,AAATAGAC,0.0478 E-score
3,ATTAGGGA,-0.124 E-score
4,TATCGCAA,0.201 E-score
5,TCTATCCA,-0.00965 E-score
6,GGGCCTTA,-0.245 E-score
7,ACACCCAC,0.0639 E-score
8,CCACGAGG,-0.336 E-score
9,ACACTAGT,0.257 E-score
10,ACTTCCAG,0.12 E-score
11,CCTAGCGA,-0.101 E-score
12,AGTAATAT,0.386 E-score
13,ATATAGAC,-0.00572 E-score
14,AGATTGCT,-0.0857 E-score
15,GTATCCAC,-0.0162 E-score
16,CTTGGATA,0.0487 E-score
17,AACTCGCT,0.0469 E-score
18,GTTGAACA,-0.213 E-score
19,AAGCCAAA,-0.175 E-score
20,CGCTCTAA,0.0938 E-score
21,GGGCACAC,-0.201 E-score
22,GCCGTCTA,0.0106 E-score
23,CAGCTCAG,-0.102 E-score
24,ACCCTAGT,0.0947 E-score
25,TATTCTAA,0.266 E-score

row,Sequence,binding signal
1,ATACCGAA,0.132 E-score
2,CGCGATTA,0.0183 E-score
3,CGGTATAG,0.074 E-score
4,GAGGATCA,-0.113 E-score
5,CAGTAAGG,-0.136 E-score
6,ACCCGCCG,-0.167 E-score
7,CATGCAGG,0.06 E-score
8,AAGTTTTA,0.28 E-score
9,ATAATACG,0.344 E-score
10,CATGCTTC,-0.0737 E-score
11,CGTCCCCC,-0.266 E-score
12,GGTGCTCA,-0.16 E-score
13,GGGGCCTA,-0.285 E-score
14,ACGTATCC,0.214 E-score
15,AAGTGAGG,-0.173 E-score
16,GGCCAAAC,-0.0521 E-score
17,GCCTTGTA,-0.0156 E-score
18,ACCGACCC,-0.388 E-score
19,ATATTTTA,0.384 E-score
20,GGACCTTA,-0.146 E-score
21,AAAATCAT,0.192 E-score
22,CCAGAACG,-0.0333 E-score
23,ACTACACC,0.225 E-score
24,AACAGCCG,-0.0305 E-score
25,AACAAGGT,-0.0981 E-score

row,Sequence,binding signal
1,ATCGAGCA,-0.068 E-score
2,CAAGATGG,0.0417 E-score
3,AAAGGATA,0.218 E-score
4,CTATTGGA,0.125 E-score
5,AGCTTGTG,-0.199 E-score
6,AAAACGGC,-0.231 E-score
7,TCGGTAGA,0.227 E-score
8,AGACAACA,-0.204 E-score
9,ACACTCGT,0.0895 E-score
10,GTACTATA,0.436 E-score
11,ACGAAACG,-0.0685 E-score
12,CCAACACC,-0.124 E-score
13,AGGCATCA,0.0352 E-score
14,ACCTTGCG,-0.16 E-score
15,ACAGTACC,0.0949 E-score
16,CTAACAAA,0.14 E-score
17,CTATCAGA,0.239 E-score
18,CCACACAC,-0.0128 E-score
19,ACGCACCC,-0.19 E-score
20,ATGACCAA,0.0405 E-score
21,CCCGAACG,-0.0846 E-score
22,ATCCGGAA,0.084 E-score
23,GTCACAAA,0.0798 E-score
24,GAACGATC,-0.13 E-score
25,ATTACATG,0.211 E-score

row,Sequence,binding signal
1,GAGTAGCA,0.107 E-score
2,AAGGCGCT,-0.115 E-score
3,CGATCCTA,0.121 E-score
4,GTTCATTA,-0.0314 E-score
5,CCTTAGTA,-0.005 E-score
6,TATCGGCA,-0.0105 E-score
7,AGAATGCC,-0.131 E-score
8,AGCGTCGA,-0.071 E-score
9,AAGATAGG,0.0239 E-score
10,GAGGCTAA,-0.112 E-score
11,GAACTTTA,0.197 E-score
12,CTACGTAA,0.119 E-score
13,CCACAGTC,-0.318 E-score
14,CTTTCCTC,-0.119 E-score
15,TGTGACAA,-0.0396 E-score
16,AGTTGAGA,0.111 E-score
17,CCGAGATA,0.115 E-score
18,GCAAGCCA,-0.18 E-score
19,CCCCCGTA,-0.206 E-score
20,CGGACTGC,-0.213 E-score
21,CCATTGCC,-0.292 E-score
22,ATAATTAA,0.298 E-score
23,GCATAGAC,-0.0624 E-score
24,CTATTAGC,0.234 E-score
25,AAGATTTG,0.0549 E-score

row,Sequence,binding signal
1,CTTACGAC,0.0937 E-score
2,CCGCTCCG,-0.187 E-score
3,CTATCATC,0.262 E-score
4,CCTGTCCA,-0.149 E-score
5,AGGTAGGG,0.0713 E-score
6,TCGACCGA,-0.0843 E-score
7,ATAGTATC,0.278 E-score
8,ACTACATA,0.305 E-score
9,CTATGGTC,-0.0653 E-score
10,CATCTTGG,-0.154 E-score
11,ACCGAGAA,-0.0134 E-score
12,AGACGGCA,-0.16 E-score
13,CCGAGGAG,-0.298 E-score
14,AGAAAACA,0.0817 E-score
15,GAGAATCC,-0.0611 E-score
16,CGAGTTCC,-0.114 E-score
17,GACCTCAC,-0.0476 E-score
18,AATCGTCG,-0.0319 E-score
19,ACTATGTA,0.356 E-score
20,AGAGATCG,-0.149 E-score
21,GTTATTAA,0.22 E-score
22,GACATCGC,-0.0559 E-score
23,GTTTCGTA,0.176 E-score
24,CCATCGCA,0.00937 E-score
25,TAGTTGAA,0.275 E-score

row,Sequence,binding signal
1,AACAACTA,0.266 E-score
2,AACTACTG,0.424 E-score
3,AGCTAGAC,0.0593 E-score
4,AAGTCGTC,0.172 E-score
5,GCGTCGAA,0.0686 E-score
6,GGTACGGA,-0.029 E-score
7,GGTTGTAA,0.257 E-score
8,AAAAAGTA,0.209 E-score
9,TTATACAA,0.222 E-score
10,AAGAGTGG,-0.145 E-score
11,GGTACCTA,0.314 E-score
12,GAACTTAA,-0.0271 E-score
13,AGGGCCTC,-0.229 E-score
14,CATTCTTC,-0.00808 E-score
15,AAAGTCAT,-0.0308 E-score
16,AAACCTCA,-0.0824 E-score
17,CATGCCCC,-0.186 E-score
18,ACACCTCA,0.0475 E-score
19,AAAAAATA,0.323 E-score
20,ACTCGGAA,-0.0218 E-score
21,GTGCAGCA,-0.0437 E-score
22,ATGATAGG,0.0735 E-score
